Assay results reported in a collection of fitness landscapes (doi:10.1016/j.celrep.2020.107928).
The full ranking holds about 81,000 sequences; the median of “one-hybrid fitness for binding parS DNA” is about -0.17, and the highest 2% start at about 0.51. The list shows a part of the results.

B1: Caulobacter ParB omega fusion; a variant is named by its letters at X, in order, B8GW30 (parent)
chain: MESVVVGEPGMSEGRRGLGRGLSALLGEVDAAPAQAPGEQLGGSREAPIEILQRNPDQPRRTFREEDLEDLSNSIREKGVLQPILVRPSPDTAGEYQIVAGERAWRAAQRAGLKTVPIMVRELDDLAVLEIGIIENVQRADLNVLEEALSYKVLMEKFERTQENIAQTIGKSXSHVANXMRLLXLPDEVQSYLVSGELTAXHARAIAAAADPVALAKQIIEGGLSVRETEALARKAPNLSAGKSKGGRPPRVKDTDTQALESDLSSVLGLDVSIDHRGSTGTLTITYATLEQLDDLCNRLTRGI

Variants of: B1
Assay: one-hybrid fitness for binding parS DNA (scaled: cognate 1, non-cognate 0); higher = stronger binding
Settings: with parS DNA site
Outline: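 Caulobacter ParB libraries with four specificity codons randomised were screened by bacterial one-hybrid selection in the E. coli USO strain, using a HIS3 reporter whose site lies 19 bp from the promoter. Selection ran for 48 hours at 37°C on M9 lacking histidine, with 0.1 mM IPTG and 5 mM 3-AT. Plasmids were Illumina-sequenced before and after selection, three replicate libraries were pooled, and variants with under 10 reads were dropped. Fitness is the log change in each variant's read ratio to wild type, rescaled against the cognate and non-cognate sites.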

| Variant | one-hybrid fitness for binding parS DNA |
| --- | --- |
| NVPK | ≤ 0.2 |
| KCFS | ≤ 0.2 |
| DAFC | ≤ 0.2 |
| HLAI | ≤ 0.2 |
| DKNG | ≤ 0.2 |
| QYNC | ≤ 0.2 |
| TSAY | ≤ 0.2 |
| CLPI | ≤ 0.2 |
| EPSI | ≤ 0.2 |
| VTHW | ≤ 0.2 |
| VYRA | ≤ 0.2 |
| AACD | ≤ 0.2 |
| KPTN | ≤ 0.2 |
| PCQF | ≤ 0.2 |
| SYES | ≤ 0.2 |
| RTQL | ≤ 0.2 |
| VLDF | ≤ 0.2 |
| RQMG | 0.973 |
| QKVR | ≤ 0.2 |
| YGNV | ≤ 0.2 |
| RWFC | 0.6 |
| NRWE | 0.27 |
| SSWG | ≤ 0.2 |
| CLAF | ≤ 0.2 |
| RKVS | 0.967 |
| QCSK | ≤ 0.2 |

| Variant | one-hybrid fitness for binding parS DNA |
| --- | --- |
| LESG | ≤ 0.2 |
| ENYG | ≤ 0.2 |
| HQQG | ≤ 0.2 |
| MAKR | ≤ 0.2 |
| VSQN | ≤ 0.2 |
| QNDF | ≤ 0.2 |
| NRDR | ≤ 0.2 |
| ADSM | ≤ 0.2 |
| KKDC | ≤ 0.2 |
| KCES | ≤ 0.2 |
| YMYG | ≤ 0.2 |
| WRAY | ≤ 0.2 |
| NWRM | ≤ 0.2 |
| YKAC | ≤ 0.2 |
| ATPP | ≤ 0.2 |
| MTSD | ≤ 0.2 |
| TIHV | ≤ 0.2 |
| TLVM | ≤ 0.2 |
| HCQR | ≤ 0.2 |
| TSYF | ≤ 0.2 |
| DLEL | ≤ 0.2 |
| GLYS | ≤ 0.2 |
| NHGV | ≤ 0.2 |
| ESCC | ≤ 0.2 |
| CARR | ≤ 0.2 |
| EGER | ≤ 0.2 |

| Variant | one-hybrid fitness for binding parS DNA |
| --- | --- |
| GNAC | ≤ 0.2 |
| EDPF | ≤ 0.2 |
| ILYQ | ≤ 0.2 |
| DHTF | ≤ 0.2 |
| DCHN | ≤ 0.2 |
| VWGT | ≤ 0.2 |
| WCNS | ≤ 0.2 |
| IGKG | ≤ 0.2 |
| KGDG | ≤ 0.2 |
| DHSC | ≤ 0.2 |
| LDMT | ≤ 0.2 |
| APPT | ≤ 0.2 |
| TVHA | ≤ 0.2 |
| RCNR | ≤ 0.2 |
| QKGM | ≤ 0.2 |
| DRVM | ≤ 0.2 |
| SPSA | ≤ 0.2 |
| INHA | ≤ 0.2 |
| PQGC | ≤ 0.2 |
| TTFH | ≤ 0.2 |
| PKMG | ≤ 0.2 |
| HSRG | ≤ 0.2 |
| LTRS | ≤ 0.2 |
| CKRC | ≤ 0.2 |
| ETMR | ≤ 0.2 |
